Each structure is given as a SMILES string. This is one part of the list.

The test system of the test is T1, C. trachomatis L2/434/Bu expressing GFP (CTL2-GFP).
T1 construct: L2/434/Bu GFP intracellular growth in HeLa cells
The arrangement: species or system HeLa; C. trachomatis total inclusion area by high-content imaging, normalised to DMSO. To be noted: total inclusion area; 28.5 h, 10 µM; inhibitor. The gist of the method:
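Following bulk GFP and resorufin fluorescence reads, infected cells were fixed, Hoechst-stained and imaged on a high-content platform. Inclusion total area and number per well served as growth proxies; nuclei counts indicated host viability. MICs were derived as for the fluorescence assay.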
In the case of `O=C(O)c1ccc(Cl)c2c1C1C=CCC1C(c1ccccn1)N2` (stereo not shown) [CBK287087], the “% of control remaining” value was determined as 110.904.
Next, `CCC(C)Oc1ccccc1OCCN1C(=O)NC(C)(C)C1=O` (stereo not shown) [CBK267362]: 128.854.
Next, `O=C(c1ccc2c(c1)CCCO2)N(Cc1ccccn1)CC1CCCO1` (stereo not shown) [CBK307488]: 59.7319; `CN1CCN(c2ccnc3cc(Cl)ccc23)CC1` [CBK066867C]: 83.672.
The same measure for `Nc1ncc(-c2cccc(OC(F)(F)F)c2)nc1-c1ccc(C(=O)N2CCOCC2)cc1` [CBK064091]: 119.716; for `CN1CCCCC1CC(=O)Nc1ccc2ncn(C)c2c1` (stereo not shown) [CBK281747]: 109.82.
With `COc1cc2c(cc1OC)CN(C(=O)C1CCN(C)CC1)CC2` [CBK122744], the “% of control remaining” value worked out at 107.053.
As to `Cc1[nH]c2ccccc2c1/C=N/c1cccc2c(/N=C/c3c(C)[nH]c4ccccc34)cccc12` [CBK261227], the “% of control remaining” value came out at 92.8756.
For the molecule `COC(=O)c1sc2ncccc2c1NS(=O)(=O)c1cc(Br)ccc1OC` [CBK049971], the “% of control remaining” value is listed as 96.5226.
The same measure for `O=C(CSc1ncn(-c2ccccc2)n1)c1ccc(Br)cc1` [CBK027014]: 108.787; for `CCc1nnc(Sc2ccc(C=O)cc2[N+](=O)[O-])[nH]1` [CBK268876]: 90.2235.
Regarding `CCOc1ccc(CN2CCN(C(=O)c3cccc(C#N)c3)CC2)cc1` [CBK304527], the “% of control remaining” value stood at 23.506.
The same measure for `Cc1ccc(Cn2c(=N)n(CC(=O)c3ccc(Br)cc3)c3ccccc32)cc1` [CBK262979B]: 59.0741; for `O=C(N/N=C/c1ccc(O)cc1O)c1[nH]c2ccc([N+](=O)[O-])cc2c1-c1ccccc1` [CBK263328]: 1.7212.
Take `O=C(CN1C2CCC1CC(O)(c1ccccc1F)C2)NCC1CC1` (stereo not shown) [CBK281942]: the “% of control remaining” value is listed as 101.045.
The same measure for `COCCn1c(CO)nnc1[C@H]1C[C@@H](NC(=O)c2ccc(C)s2)C1` [CBK307063]: 75.4641; for `Cn1ccnc1C1CCN(C(=O)NCc2cccc(F)c2)CC1` [CBK304606]: 36.9353.
On to `CC1NCCc2c1sc1ccccc21` (stereo not shown) [CBK026032C], for which the “% of control remaining” value was 62.5926.
Next, `O=C(c1cn2cc(-c3cccs3)n(CC3CC3)c(=O)c2n1)N1CC(O)C1` [CBK306979]: 108.399; `Oc1ccccc1-c1n[nH]c(=S)n1-c1ccc(OC(F)(F)F)cc1` [CBK288384]: 65.3372.
For `O=C(Cc1ccccc1[N+](=O)[O-])NCCCN1CCOCC1` [CBK265520], the “% of control remaining” value is listed as 110.84.
Turning to `CC(Sc1nc2ccccc2[nH]1)C(=O)Nc1ccc(S(N)(=O)=O)cc1` (stereo not shown) [CBK266128], the “% of control remaining” value amounted to 106.212.
Next, `NC(=O)CSc1nc(NCc2ccccc2)nc(N2CCOCC2)n1` [CBK268923]: 92.5926; `O=C(NCCn1nc(-c2cccs2)ccc1=O)C1CCCCC1` [CBK283837]: 66.7184.
The same measure for `O=C(Nc1nnc(-c2ccco2)o1)C(c1ccccc1)c1ccccc1` [CBK287424]: 89.1894.
Next, `COc1ccc(/C=N/NC(=O)c2cc[nH]n2)cc1CSc1nc2ccccc2s1` [CBK263734]: 94.4194; `CCCc1[nH]nc(O)c1Cc1ccc(F)cc1F` [CBK075015]: 78.9191; `Cc1ccc(C(=O)N2CCN(c3ccc(NC(=O)c4ccc(-c5cccc([N+](=O)[O-])c5)o4)cc3)CC2)cc1` [CBK266355]: 104.066.
For the molecule `Cn1c(SCc2cc(-c3ccc(Cl)cc3)no2)nnc1-c1ccco1` [CBK295193], the “% of control remaining” value is given as 120.198.
For the molecule `CC(C)(C)c1ccc(N(C2CCNCC2)S(=O)(=O)c2ccc(Cl)cc2Cl)cc1` [CBK165067T], the “% of control remaining” value is recorded as 9.149.
The same measure for `NC(=O)C1(N2CCCCC2)CCN(C(=O)CSc2nnc(-c3ccccc3)n2C2CCCCC2)CC1` [CBK266219]: 94.0928; for `Cc1cccc2c3c([nH]c12)C1(CCCN(C/C=C\c2ccccc2)C1)N(C=O)CC3` (stereo not shown) [CBK040265]: 88.8032.
Take `COc1ccccc1CN(CC(C)(C)CN)C(=O)NC1C[C@H]1c1ccccc1` (stereo partly shown) [CBK002424C]: the “% of control remaining” value stood at 71.089.
On to `COc1ccccc1N1CCN(CC(=O)Nc2cc(Cl)ccc2C)CC1` [CBK270087], for which the “% of control remaining” value was 102.558.
Next, `O=c1[nH]cc(-c2ccc(F)cc2)cc1CNCc1ccccc1F` [CBK284696]: 90.6144; `COc1ccc(OCCNC(=O)c2ccc(-c3ccccc3C)nc2N2CCN(C(=O)c3ccco3)CC2)cc1` [CBK076207]: 120.786; `CNC(=O)c1ccc(-n2ccnc2)c(-n2cccc2)c1` [CBK282461]: 111.348.
Next, `Cn1c(=O)c2c(=S)[nH]c(-c3ccccc3)nc2n(C)c1=O` [CBK288422]: 125.407; `O=C1/C(=C/c2c(NCCCn3ccnc3)nc3ccccn3c2=O)SC(=S)N1CC1CCCO1` (stereo not shown) [CBK111310]: 85.8656; `O=C(O)CCC(=O)c1cccc([N+](=O)[O-])c1` [CBK263681]: 109.151.
For `CSc1ccc(-c2nccnc2OCCC(C)C)cc1` [CBK106802], the “% of control remaining” value came to 77.638.
Next, `Cc1nc(CC(=O)N2CCC[C@@H]3NC(=O)c4ccccc4OCCCCC[C@@H]32)cs1` [CBK292113]: 102.249.
The same measure for `COc1ccc(S(=O)(=O)N(CC(=O)N2CCC(C(N)=O)CC2)c2ccccc2)cc1` [CBK265301]: 84.0213; for `COc1cccc(-c2cnc3[nH]c(=O)n(CCCO)c3n2)c1` [CBK065036]: 81.6511; for `CCn1c(C)nnc1SCCNC(=O)c1cnc(N(C)C)nc1C` [CBK307135]: 56.2436.
The same measure for `OC[C@H]1O[C@@H](n2cnc3c(Cl)nccc32)C[C@H]1O` [CBK201273]: 105.597.
For the molecule `CC(CSSCC(C)C(=O)O)C(=O)O` (stereo not shown) [CBK260940], the “% of control remaining” value worked out at 78.8705.
The same measure for `CC(NC(=O)Nc1ccc(C(=O)NC(C)(C)C)cc1)c1cccc(Cl)c1` (stereo not shown) [CBK298265]: 82.5151; for `CC(C)(C)c1csc(NCc2c(O)ccc3ccccc23)n1` [CBK078381]: 42.5859.
The same measure for `O=C(C[C@@H]1CCNC[C@@H]1Cc1cc(CN2CCCCC2)on1)N1CCCCC1` [CBK289153]: 81.0001.
The same measure for `COc1cc(CN2CCC(N3CCN(c4ccccc4)CC3)CC2)ccc1OCc1ccccc1` [CBK264655G]: 92.7792; for `O=C(Nc1ccccc1N1CCNCC1)C1CCC1` [CBK004755T]: 77.7653; for `COC(=O)COc1ccc(Oc2nc(N(C)C)nc(N3CCOCC3)n2)nn1` [CBK267258]: 123.384.
As for `O=S(=O)(NCc1ccco1)N1CCOCC1` [CBK268749], the “% of control remaining” value is 97.8208.
The same measure for `CC(C)CC(=O)N1C[C@H]2NC(=O)c3ccccc3C(=O)[C@@]2(C)C1` [CBK281659]: 95.3403; for `CN1C(C(=O)O)=CC(c2ccc(F)cc2)=NS1(=O)=O` [CBK287016]: 87.2975.
Next, `CC(C)c1ccc(SCCc2ccccn2)cc1` [CBK026575C]: 64.2231; `COc1ccc([C@H]2CN(Cc3ccccc3)[C@@H]3CCN(C(=O)c4ccccc4F)C[C@H]23)cc1` [CBK285542]: 64.6562; `Cc1cc2c(s1)c1cnn(CC(=O)NC(C)C)c(=O)c1n2C` [CBK284155]: 69.6505.
For the molecule `O=C(O)CCCC(=O)NC12CC3CC(CC(C3)C1)C2` [CBK286958], the “% of control remaining” value came to 58.7734.
As for `Cn1c(C(=O)OCC(=O)NC(C)(C)C)cc2occc21` [CBK284015], the “% of control remaining” value was 55.8618.
Take `Cn1c(=O)c2c(ncn2CC(=O)Nc2cccc3ccccc23)n(C)c1=O` [CBK133515]: the “% of control remaining” value came to 95.3843.
`COc1nc(N)nc(C/C(=N\NC(=O)c2cccnc2)C2CC2)n1` [CBK019872]: the “% of control remaining” value is listed as 96.3812.
Consider `CN1CCN(C(=O)c2ccc(-c3ccccc3)nc2NCCc2ccccn2)CC1` [CBK076550], for which the “% of control remaining” value was determined as 94.8207.
Next, `CS(=O)(=O)Nc1nccnc1N1CCNCC1` [CBK074045T]: 97.4621; `COCCCn1c(=O)[nH]c2ncc(-c3cc(OC)c(OC)c(OC)c3)nc21` [CBK064937]: 116.597.
Next, `Cc1ccc(CNCCNCCO)s1` [CBK278168C]: 113.757; `Cc1cccc(CN2CC[C@H]3[C@@H](C2)[C@H](c2ccsc2)CN3C(=O)c2ccccc2)c1` [CBK285619]: 74.4735; `CCOC(=O)c1c(NC(C)=O)nc2n1CCS2` [CBK023488]: 114.288.
Take `CCN(CC)CC1CCCCC1=O` (stereo not shown) [CBK023965G]: the “% of control remaining” value is 109.731.
The same measure for `O=C(O)C(Cc1ccccc1)N1C(=O)/C(=C/c2cccc([N+](=O)[O-])c2)SC1=S` (stereo not shown) [CBK263078]: 89.4678; for `CC(C)Oc1ncc(C(=O)NCc2cccc(NC(N)=O)c2)cc1Cl` [CBK306327]: 52.8089; for `Cc1nc(C)c(-c2csc(Nc3ccc(O)cc3C)n2)s1` [CBK267346]: 111.42.
Next, `CCn1ccc(NC(=O)CC2CCN(Cc3cccc(C(F)(F)F)c3)CC2)n1` [CBK285997]: 81.0378; `O=C(c1ccco1)N1CCCC(n2cnc3cc(F)ccc32)C1` (stereo not shown) [CBK284475]: 100.215; `CSCC[C@@H]1CN2CCC[C@H]2CN1Cc1cnc(C)n1C` [CBK285423]: 90.8439.
`Cn1cnc2cc(C(=O)N3CC(C(=O)N4CCN(c5ccccc5)CC4)C3)ccc21` [CBK285664]: the “% of control remaining” value was found to be 87.521.
Turning to `O=C(Nc1ccc(S(=O)(=O)N2CCCCCC2)cc1)c1ccc(NS(=O)(=O)c2ccccc2)cc1` [CBK268018], the “% of control remaining” value is recorded as 101.164.
On to `O=C(CC1CCN(Cc2cccc(C(F)(F)F)c2)CC1)NCc1ccc2[nH]c(=O)[nH]c2c1` [CBK285954], for which the “% of control remaining” value was found to be 101.85.

Values taken from paper PMC12040169 (PLOS Biology, 2025).
